Results as given in ChEMBL document CHEMBL4888484, “Replenishing the malaria drug discovery pipeline: Screening and hit evaluation of the MMV Hit Generation Library 1 (HGL1) against asexual blood stage Plasmodium falciparum ,using a nano luciferase reporter read-out” (2022).
Hit rate of the full screen: of about 150,000 compounds, about 540 (0.36%) showed an effect of 50% or more. Some of the results follow.

Tested on: Plasmodium falciparum
Assay: Primary screen in NF54 nanoGlo assay, in single point, at 2uM, 72h; a lower Z score goes with more inhibition
Assay type: functional, Erythrocyte
Settings: timepoint 72 hour

Structure (SMILES)	% Inhibition [%]	Z score
CCCN(CC(=O)N(CCc1ccccc1)Cc1ccco1)C(=O)Nc1cccc(C#N)c1	-14	1.77
NC(=O)CC1CCN(C(=O)c2c3c(nc4ccccc24)CCC3)CC1	-3	0.41
Cc1cc2c(cc1S(=O)(=O)Nc1ccc(Cl)cc1F)OCC(=O)N2Cc1noc(C2CC2)n1	10	-1.19
C[C@H](NC(=O)N1CCC(CN2CCc3ccccc32)CC1)c1ccncc1	-8	1.04
O=C(CNc1ccc(-n2cnnn2)cc1)NC1CCCCC1	-10	1.48
Cc1nnc(C(C)N2CCOC(C3CCCCC3)C2)o1 (stereo unspecified)	-27	3.15
CN1C(=O)N([C@@H]2COc3ccc(F)cc3C2)C(=O)C1(C)C	-8	1.08
O=C(CCc1cn[nH]c1)N[C@@H]1CCC[C@H]1OCc1ccccc1	-2	0.31
C=CCN(C(=O)c1cc(COc2cc(C)c(Cl)c(C)c2)on1)[C@H]1CCS(=O)(=O)C1	0	-0.01
Cc1ccccc1N1CCN(C(=O)c2nccnc2-c2nc3ccccc3s2)CC1	12	-1.38
CCCc1nc(C)c(CNS(=O)(=O)CCC)s1	-17	2.19
Cc1ncsc1CCC(=O)N[C@H]1CC(=O)N(c2ccccc2)C1	5	-0.96
O=C(Nc1nnc(-c2cc(F)ccc2F)s1)c1csnn1	-20	2.7
CCC(Oc1ccc2c(c1)C(c1ccccc1)N(Cc1ccccc1F)CC2)C(=O)NCCC(C)C (stereo unspecified)	-11	1.96
CCN(CCOc1cccc(C)c1)C(=O)c1ccc(-c2cnn(CC)c2)cc1	14	-1.86
Cc1nn(C(C)C)cc1-c1cccc2ccnn12	-5	1.05
Cc1cc(NC(=O)N[C@H]2CCCC[C@@H]2OCc2ccccc2)n(C)n1	-5	0.67
CN1C(=O)C2(CCN(c3ncc(F)cn3)CC2)c2ccccc21	6	-0.74
COc1cccc([C@H]2Nc3ccccc3-n3c(-c4ccccc4C)c4c(=O)n(C)c(=O)n(C)c4c32)c1O	2	-0.4
Cc1ccoc1C(=O)NCC1(c2ccccc2)CC1	-26	3.09
CNC(=O)Cc1csc(NC(=O)c2cccnc2O[C@H]2CCOC2)n1	0	0.07
c1cnc(-c2nc(CN3CCC[C@H]3c3cccs3)cs2)nc1	-11	1.43
Cc1cccc(NC(=O)c2nnc(CCC(=O)N3CCCC3)s2)c1	-13	2.44
CC1(C)CCc2ccccc2[C@@H](NCC(=O)NC2CCOCC2)C1	-15	2.05
CN(C)S(=O)(=O)N1CCC(CNC(=O)CC2CC2)CC1	1	-0.23
Cc1noc(C)c1S(=O)(=O)N1CC[C@H](c2ncon2)C1	4	-0.72
O=C(CN1CCCS1(=O)=O)N1CCCCC[C@H]1c1noc(-c2ccccc2)n1	-13	1.51

Structure (SMILES)	% Inhibition [%]	Z score
CC(C)CC1(NC2CCN(c3ccc(-n4cccn4)cc3)CC2)CC1	-5	0.88
Cc1ccc(C(=O)N2CC[C@H](O)[C@@H](C3CCCC3)C2)c(C2CC2)n1	-13	2.22
Cc1nccc(O[C@H]2CCN(C(=O)CCC(=O)c3ccccc3)C2)n1	-14	2.24
O=C(N[C@H]1CCOC[C@@H]1OCc1ccccn1)c1ccncc1O	-15	2.26
Cc1nc(CNc2ccc(CCC(F)(F)F)cc2)no1	0	-0.05
CCn1c(C2CCNCC2)nn(C/C=C/c2ccccc2)c1=O	4	-0.4
CCOc1ccc(-n2nc3ccc(NC(=O)c4ccc(-c5cccc(Cl)c5)o4)cc3n2)cc1	-2	0.31
Cc1ccc(C)c(NC(=O)[C@H](OC(=O)c2cc(-c3ccccc3Cl)nc3ccccc23)c2ccccc2)c1	9	-1.62
CCC(CC)NC(=O)c1ccc(OC)c(OC)c1	-8	1.61
CCc1nc(NCCNS(=O)(=O)c2ccc(C)cc2)c2c(C)nn(-c3ccccc3C)c2n1	4	-0.47
CCCc1cc(C(=O)N2CC[C@H](Oc3cccnc3N(C)C)C2)no1	-5	0.99
Cc1ccc([C@H](C)NC(=O)c2cnn(CCC(C)C)c2C(C)C)o1	-8	0.84
COCc1nc(CN2C[C@@](C)(Cc3ccc4c(c3)OCO4)CCC2=O)no1	-2	0.31
CC1=CCN(S(=O)(=O)c2cccc(C(=O)NCc3ccncn3)c2)CC1	3	-0.6
O=C(NCCOCCO)c1cccc(Br)c1Cl	-5	0.53
O=C(NCc1nnc(C2CC2)s1)[C@H]1CCN(c2ccccc2)C1	-5	0.87
COCCNC(=O)c1cn2ccnc(-c3ccc(OC)cc3)c2n1	33	-3.72
CC[C@H](C)NC(=O)c1ccc(Oc2ccc(NS(=O)(=O)c3cc(C)ccc3C)cn2)cc1	-2	0.23
CC(=O)c1ccccc1-c1ccc2[nH]ncc2c1	-3	0.38
Cc1ccc(NC(=O)NCCc2ncc(C)n2Cc2ccc(F)cc2)cc1C	-18	1.91
Cc1ccc(NC(=O)NC2CCN(Cc3cc(F)cc(F)c3)CC2)cn1	-7	1.21
Cc1nc(Cc2noc(CC3CC4CCC3C4)n2)no1 (stereo unspecified)	-12	1.03
C[C@H](NC(=O)NCC1CCOCC1)c1ccc(Br)cc1	-4	0.4
CCCc1cnc(C)nc1NCCc1c[nH]cn1	-9	1.15
COc1nscc1CN(C)C(=O)[C@@H](C(=O)O)C(C)(C)C	-2	0.35
Cc1cc(C)c2c(c1)CCCN2C(=O)CCCS(C)(=O)=O	-8	0.88
